# Results published in the antibiotic and cytotoxicity screens of Wong et al. (2023).
# The list shows a part of the results.
# Key:
# HSkMC = human skeletal muscle cells; assay: cytotoxicity call (relative viability < 0.9); settings: 10 µM
# HepG2 = assay: cytotoxicity call (relative viability < 0.9); settings: 10 µM
# S. aureus RN4220 = assay: growth inhibition call (relative growth <= 0.2); settings: 50 µM
SMILES,cytotoxicity call (HSkMC),cytotoxicity call (HepG2),growth inhibition call (S. aureus RN4220)
C[C@@H]1CN([C@H](C)CO)C(=O)c2cccc(NC(=O)CCCCCC(=O)Nc3ccccc3N)c2O[C@@H]1CN(C)S(C)(=O)=O,inactive,inactive,inactive
COc1cccc(S(=O)(=O)N[C@@H]2CC[C@@H](CCn3cc(-c4ccccc4OC)nn3)O[C@@H]2CO)c1,inactive,inactive,inactive
C[C@@H]1CN([C@@H](C)CO)C(=O)Cc2cc(NC(=O)Nc3ccc4c(c3)OCO4)ccc2O[C@H]1CN(C)Cc1ccc(-c2ccccc2)cc1,inactive,active,inactive
C[C@H]1CN([C@@H](C)CO)C(=O)Cc2cc(NC(=O)Nc3ccc4c(c3)OCO4)ccc2O[C@@H]1CN(C)C(=O)Nc1ccc(C(F)(F)F)cc1,inactive,inactive,inactive
C[C@@H]1CCCCO[C@H](CN(C)Cc2ccc(C(F)(F)F)cc2)[C@H](C)CN([C@@H](C)CO)C(=O)c2cc(NS(=O)(=O)c3ccc(F)cc3)ccc2O1,active,inactive,inactive
C[C@@H]1CN([C@@H](C)CO)C(=O)c2cccc(NC(=O)Nc3ccccc3)c2O[C@H]1CN(C)Cc1ccc(C(=O)Nc2ccccc2N)cc1,inactive,inactive,inactive
Cc1nc(N)c(C(=O)O)nc1C,inactive,inactive,inactive
COc1ccc(S(=O)(=O)N(C)C[C@H]2Oc3c(NC(=O)C4CCOCC4)cccc3C(=O)N([C@@H](C)CO)C[C@H]2C)cc1,inactive,inactive,inactive
Nc1ccccc1Nc1ccccc1,inactive,inactive,inactive
CC(C)NC(=O)N(C)C[C@@H]1Oc2c(NS(=O)(=O)c3ccc(Cl)cc3)cccc2C(=O)N([C@@H](C)CO)C[C@H]1C,inactive,inactive,inactive
C#CCN(O[C@@H](/C=C/[C@@H](O)CCn1cc(-c2ccc(C(=O)NO)s2)nn1)C1CC1)[C@@H](Cc1ccccc1)C(=O)OC,inactive,inactive,inactive
COc1ccccc1C#Cc1ccc2c(c1)O[C@H](CN(C)Cc1cccnc1)[C@@H](C)CN([C@H](C)CO)S2(=O)=O,inactive,active,inactive
COc1cc(C[C@H]2CO[C@H](c3ccc(O)c(OC)c3)[C@@H]2CO[C@H]2O[C@@H](CO)[C@@H](O)[C@@H](O)[C@@H]2O)ccc1O,inactive,active,inactive
C[C@@H]1CN([C@H](C)CO)C(=O)CCCn2nncc2CO[C@H]1CN(C)S(=O)(=O)c1ccc(-n2cccn2)cc1,inactive,inactive,inactive
C[C@H]1CN([C@@H](C)CO)C(=O)c2cc(NC(=O)C3CCCCC3)ccc2O[C@H]1CN(C)C(=O)Nc1ccc(C(F)(F)F)cc1,inactive,inactive,inactive
c1ccc2c(c1)ccc1cc3c(ccc4ccccc43)cc12,inactive,inactive,inactive
COc1ccc(NC(=O)N(C)C[C@@H]2OCc3ccccc3-c3c(n(C)c4ccccc34)C(=O)N([C@@H](C)CO)C[C@@H]2C)cc1,inactive,inactive,inactive
